The values below come from the BET-seq Pho4 binding data (Le et al. 2018).

The list shows a part of the results. These are noisy estimates, calculated here from bound and input reads.

In the experiment the target is T1, Pho4 (S. cerevisiae) (UniProt P07270).
T1 sequence: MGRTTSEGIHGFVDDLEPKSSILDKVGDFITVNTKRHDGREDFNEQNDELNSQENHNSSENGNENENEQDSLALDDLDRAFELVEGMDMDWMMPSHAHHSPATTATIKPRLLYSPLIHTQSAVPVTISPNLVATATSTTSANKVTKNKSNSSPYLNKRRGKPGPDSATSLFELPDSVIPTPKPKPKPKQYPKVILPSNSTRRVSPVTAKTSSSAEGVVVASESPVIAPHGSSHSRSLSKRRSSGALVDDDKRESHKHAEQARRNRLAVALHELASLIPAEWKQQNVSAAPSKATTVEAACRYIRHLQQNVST
Briefly: relative binding free energy (BET-seq); higher = weaker binding. Particulars: reference: library average.
Regarding TGAGCCACGTGGCGTT, the “relative binding free energy” value was -0.06 kcal/mol.

Consider GGTTTCACGTGGTAGT, for which the “relative binding free energy” value came to 0.29 kcal/mol.

Take TGGGTCACGTGGTTGT: the “relative binding free energy” value was 0.15 kcal/mol.

Take TCAATCACGTGTTAGG: the “relative binding free energy” value worked out at 0.06 kcal/mol.

As for ATATTCACGTGGGAGT, the “relative binding free energy” value stood at 0.17 kcal/mol.

For the sequence GTTTCCACGTGTATGT, the “relative binding free energy” value worked out at 0.01 kcal/mol.

Take AGCTACACGTGAGGTG: the “relative binding free energy” value was found to be 0.35 kcal/mol.

ATAGGCACGTGTGCGA: the “relative binding free energy” value was -0.18 kcal/mol.

Take TTACGCACGTGGGTAA: the “relative binding free energy” value was -0.16 kcal/mol.

AGTGGCACGTGAGATA: the “relative binding free energy” value came to 0.09 kcal/mol.

For the sequence TAGACCACGTGGTTTG, the “relative binding free energy” value is -0.02 kcal/mol.

For ATGACCACGTGGTATG, the “relative binding free energy” value was -0.1 kcal/mol.

On to GACTTCACGTGTTATT, for which the “relative binding free energy” value stood at 0.28 kcal/mol.

Turning to CGGTACACGTGTTGTG, the “relative binding free energy” value is -0.08 kcal/mol.

As for GTAAGCACGTGTTGAT, the “relative binding free energy” value is -0.1 kcal/mol.

For the sequence GAATTCACGTGGGGGT, the “relative binding free energy” value turned out to be 0.15 kcal/mol.

For TCGGGCACGTGGTGTG, the “relative binding free energy” value is -0.16 kcal/mol.

Regarding TTTAGCACGTGCGGTA, the “relative binding free energy” value is -0.12 kcal/mol.

Turning to GCTTGCACGTGTGTGA, the “relative binding free energy” value is -0.02 kcal/mol.

With AGGTGCACGTGTAGCG, the “relative binding free energy” value is -0.04 kcal/mol.

On to ATGGGCACGTGGTCTT, for which the “relative binding free energy” value is -0.21 kcal/mol.

Turning to CCGTGCACGTGTTGTG, the “relative binding free energy” value was -0.17 kcal/mol.

On to CGTGTCACGTGAATGG, for which the “relative binding free energy” value was determined as 0.16 kcal/mol.

In the case of ATTGACACGTGTTCGG, the “relative binding free energy” value was -0.16 kcal/mol.

For the sequence TAAGGCACGTGATGTG, the “relative binding free energy” value is 0.02 kcal/mol.

On to TGTCACACGTGTGGGC, for which the “relative binding free energy” value is 0.12 kcal/mol.

Consider TTACGCACGTGGGTTA, for which the “relative binding free energy” value was -0.19 kcal/mol.

Take AGAAGCACGTGGAGAT: the “relative binding free energy” value is -0.04 kcal/mol.

Take AAGATCACGTGAGTTG: the “relative binding free energy” value was found to be 0.19 kcal/mol.

For the sequence TAGTGCACGTGGTTAG, the “relative binding free energy” value was -0.08 kcal/mol.

TATATCACGTGGGGTA: the “relative binding free energy” value was -0.04 kcal/mol.

Consider TTAGTCACGTGTTTTA, for which the “relative binding free energy” value was 0.18 kcal/mol.

For the sequence TGTTACACGTGGGTCC, the “relative binding free energy” value worked out at 0 kcal/mol.

Turning to TGAGCCACGTGCGTGT, the “relative binding free energy” value is -0.12 kcal/mol.

For CAAGTCACGTGGTTAG, the “relative binding free energy” value came to 0.04 kcal/mol.

Consider TGTTACACGTGAGTCG, for which the “relative binding free energy” value was determined as 0.29 kcal/mol.

With AATGGCACGTGGTGTC, the “relative binding free energy” value was -0.23 kcal/mol.

For the sequence TGTCACACGTGAATGT, the “relative binding free energy” value is 0.18 kcal/mol.

As for CATTGCACGTGGTGAT, the “relative binding free energy” value was -0.11 kcal/mol.

As to ATTATCACGTGAAGTT, the “relative binding free energy” value came out at 0.32 kcal/mol.

Take GGGAACACGTGTCTGG: the “relative binding free energy” value was found to be 0.17 kcal/mol.

For the sequence TTTGTCACGTGCCATT, the “relative binding free energy” value was 0.01 kcal/mol.

On to TTGCTCACGTGGTAAT, for which the “relative binding free energy” value amounted to 0.22 kcal/mol.

Turning to GGGCTCACGTGAGTTT, the “relative binding free energy” value stood at 0.46 kcal/mol.

On to CGCGGCACGTGTAAGT, for which the “relative binding free energy” value is 0.06 kcal/mol.

TATCGCACGTGGAATG: the “relative binding free energy” value is 0.03 kcal/mol.

GGTGGCACGTGGGATG: the “relative binding free energy” value is -0.14 kcal/mol.

GGGGGCACGTGTGGAG: the “relative binding free energy” value is 0.01 kcal/mol.

Regarding GGGGGCACGTGCGGTG, the “relative binding free energy” value is -0.12 kcal/mol.

As for AGTGGCACGTGGCGAG, the “relative binding free energy” value was -0.1 kcal/mol.

Take CGAATCACGTGGGTAG: the “relative binding free energy” value is 0.09 kcal/mol.

With AGGATCACGTGAGTTA, the “relative binding free energy” value was 0.23 kcal/mol.

Take AGTATCACGTGAGGGC: the “relative binding free energy” value worked out at 0.29 kcal/mol.

As to TTTTGCACGTGCGGAG, the “relative binding free energy” value was determined as 0.1 kcal/mol.

As for CGTTACACGTGTAGAT, the “relative binding free energy” value came out at 0.34 kcal/mol.

Take GAGTTCACGTGATTGA: the “relative binding free energy” value came out at 0.33 kcal/mol.

Take TGTACCACGTGGGGAG: the “relative binding free energy” value is -0.24 kcal/mol.

As to TATCACACGTGGTGGG, the “relative binding free energy” value was -0.1 kcal/mol.

GTAAACACGTGATGAT: the “relative binding free energy” value came out at 0.33 kcal/mol.

AGGTCCACGTGGTTTT: the “relative binding free energy” value is -0.04 kcal/mol.

In the case of ATGTTCACGTGTTGGG, the “relative binding free energy” value came out at 0.29 kcal/mol.

Turning to ATATGCACGTGGGGCG, the “relative binding free energy” value was -0.19 kcal/mol.

For the sequence TGAATCACGTGGAGGC, the “relative binding free energy” value was found to be 0.11 kcal/mol.

For AGAGACACGTGTGGGT, the “relative binding free energy” value worked out at 0.08 kcal/mol.

As to GTCAGCACGTGTTGGC, the “relative binding free energy” value turned out to be 0.06 kcal/mol.

Regarding ACAGGCACGTGTAGGG, the “relative binding free energy” value is -0.14 kcal/mol.

Turning to GTTTGCACGTGGCAGT, the “relative binding free energy” value is -0.05 kcal/mol.

For the sequence AGGAGCACGTGTACGG, the “relative binding free energy” value is -0.09 kcal/mol.

Take GGCATCACGTGGGGGG: the “relative binding free energy” value was -0.06 kcal/mol.

TTGGGCACGTGGGATC: the “relative binding free energy” value is -0.01 kcal/mol.

Consider AGTTACACGTGGTTTC, for which the “relative binding free energy” value stood at 0.06 kcal/mol.

On to TTCGTCACGTGTAAGA, for which the “relative binding free energy” value was 0.1 kcal/mol.

In the case of ATGCGCACGTGTGTGC, the “relative binding free energy” value is -0.11 kcal/mol.

Take TAAGCCACGTGTGAGT: the “relative binding free energy” value is -0.15 kcal/mol.

Turning to TACGTCACGTGTATGG, the “relative binding free energy” value was found to be 0.14 kcal/mol.

For GTTGTCACGTGGGGAG, the “relative binding free energy” value came out at 0.07 kcal/mol.

Consider GGCATCACGTGCATGG, for which the “relative binding free energy” value amounted to 0.21 kcal/mol.

Regarding GGGGTCACGTGAGCGC, the “relative binding free energy” value is 0.38 kcal/mol.

On to TGGCTCACGTGTTGAA, for which the “relative binding free energy” value worked out at 0.27 kcal/mol.

Turning to AGTGTCACGTGGGGAG, the “relative binding free energy” value was -0.04 kcal/mol.

On to TGGAACACGTGATGCG, for which the “relative binding free energy” value came to 0.11 kcal/mol.

TTCATCACGTGGTGGT: the “relative binding free energy” value amounted to 0.11 kcal/mol.

For CGGGGCACGTGATGAA, the “relative binding free energy” value amounted to 0.1 kcal/mol.

TACGTCACGTGAGGTT: the “relative binding free energy” value was found to be 0.17 kcal/mol.

In the case of GGGTCCACGTGGATGG, the “relative binding free energy” value worked out at 0.08 kcal/mol.

TGTAGCACGTGTTTAA: the “relative binding free energy” value was -0.04 kcal/mol.

With TGATGCACGTGATGGA, the “relative binding free energy” value was found to be 0 kcal/mol.

As for TGAGGCACGTGTGGGT, the “relative binding free energy” value is -0.04 kcal/mol.

As for TTACGCACGTGTGTAA, the “relative binding free energy” value was -0.14 kcal/mol.

Turning to TCGGTCACGTGTTATA, the “relative binding free energy” value came to 0.06 kcal/mol.

As for AAGTGCACGTGTCGGA, the “relative binding free energy” value is 0.07 kcal/mol.

On to ACTAGCACGTGGGGGG, for which the “relative binding free energy” value is -0.21 kcal/mol.

For the sequence AGTGTCACGTGTAGAT, the “relative binding free energy” value came to 0.09 kcal/mol.

In the case of AAGAGCACGTGGTTAA, the “relative binding free energy” value was -0.2 kcal/mol.

As for GACTTCACGTGATGGG, the “relative binding free energy” value turned out to be 0.33 kcal/mol.

GGGTTCACGTGAATAG: the “relative binding free energy” value amounted to 0.46 kcal/mol.

On to CTTATCACGTGGGGTG, for which the “relative binding free energy” value is -0.04 kcal/mol.

TTCGCCACGTGGGATT: the “relative binding free energy” value is 0.03 kcal/mol.

As for ATTGACACGTGTTTAA, the “relative binding free energy” value amounted to 0.05 kcal/mol.

Regarding GGGTCCACGTGTGTTA, the “relative binding free energy” value worked out at 0.16 kcal/mol.

As to GTATTCACGTGTTCGC, the “relative binding free energy” value amounted to 0.3 kcal/mol.

With GGGTCCACGTGTTGTA, the “relative binding free energy” value is -0.08 kcal/mol.

Turning to TCCGACACGTGGGGTT, the “relative binding free energy” value was -0.06 kcal/mol.

With AGGCGCACGTGCAGGT, the “relative binding free energy” value was -0.12 kcal/mol.

GGGGTCACGTGACTAG: the “relative binding free energy” value turned out to be 0.22 kcal/mol.

ATTGTCACGTGTTTTG: the “relative binding free energy” value is 0.07 kcal/mol.

Turning to GTTAGCACGTGATGTT, the “relative binding free energy” value came to 0.27 kcal/mol.

With TTTGCCACGTGTTGTA, the “relative binding free energy” value was -0.02 kcal/mol.

As for GGTGTCACGTGGTCGT, the “relative binding free energy” value was -0.02 kcal/mol.

As for TCTGTCACGTGTTGGA, the “relative binding free energy” value was -0.02 kcal/mol.

Regarding GCTCGCACGTGGGGGG, the “relative binding free energy” value is -0.24 kcal/mol.

Consider GGGCGCACGTGTAGAG, for which the “relative binding free energy” value is -0.13 kcal/mol.

Consider AAATGCACGTGCATGG, for which the “relative binding free energy” value is 0.05 kcal/mol.

As to GGTGTCACGTGAATAT, the “relative binding free energy” value came to 0.18 kcal/mol.

TTCTGCACGTGCGTAT: the “relative binding free energy” value was -0.03 kcal/mol.
